SMILES strings stand for the structures. About 2,200 (0.71%) of roughly 310,000 compounds showed an effect of 50% or more. Effects have a minus sign here. The list shows a part of the results.

Chain of human ether-à-go-go-related gene (hERG) potassium channel (Q12809 whole entry, looked up): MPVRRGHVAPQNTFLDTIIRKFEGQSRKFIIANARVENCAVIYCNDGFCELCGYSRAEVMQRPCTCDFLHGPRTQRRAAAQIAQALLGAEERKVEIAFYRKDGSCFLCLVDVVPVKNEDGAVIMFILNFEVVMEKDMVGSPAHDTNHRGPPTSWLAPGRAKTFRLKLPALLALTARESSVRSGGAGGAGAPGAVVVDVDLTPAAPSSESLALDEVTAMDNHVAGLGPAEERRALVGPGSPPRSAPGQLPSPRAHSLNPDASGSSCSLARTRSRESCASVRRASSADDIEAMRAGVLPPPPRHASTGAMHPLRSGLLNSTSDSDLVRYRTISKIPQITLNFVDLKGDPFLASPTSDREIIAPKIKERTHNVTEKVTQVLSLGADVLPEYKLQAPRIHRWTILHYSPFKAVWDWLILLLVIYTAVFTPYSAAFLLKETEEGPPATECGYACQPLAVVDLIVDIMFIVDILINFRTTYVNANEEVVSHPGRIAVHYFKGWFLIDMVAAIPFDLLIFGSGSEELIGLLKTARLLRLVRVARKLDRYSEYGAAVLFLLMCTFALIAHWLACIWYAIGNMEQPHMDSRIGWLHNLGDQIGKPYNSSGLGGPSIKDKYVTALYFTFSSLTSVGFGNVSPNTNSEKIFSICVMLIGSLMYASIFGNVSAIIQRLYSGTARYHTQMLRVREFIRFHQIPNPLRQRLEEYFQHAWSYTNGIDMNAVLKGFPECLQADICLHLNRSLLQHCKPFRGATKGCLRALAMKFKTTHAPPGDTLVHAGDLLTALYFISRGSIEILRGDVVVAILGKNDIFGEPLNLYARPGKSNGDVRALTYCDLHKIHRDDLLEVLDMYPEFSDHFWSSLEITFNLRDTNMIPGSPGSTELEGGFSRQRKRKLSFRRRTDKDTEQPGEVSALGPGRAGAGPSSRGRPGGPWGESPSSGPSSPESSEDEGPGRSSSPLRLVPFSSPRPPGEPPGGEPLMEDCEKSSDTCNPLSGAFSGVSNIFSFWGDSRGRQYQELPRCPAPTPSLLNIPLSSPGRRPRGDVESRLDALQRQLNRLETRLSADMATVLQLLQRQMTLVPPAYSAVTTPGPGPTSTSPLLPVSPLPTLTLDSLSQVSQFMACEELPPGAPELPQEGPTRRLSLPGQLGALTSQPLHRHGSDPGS

The experiment concerns the target human ether-à-go-go-related gene (hERG) potassium channel (human, UniProt Q12809). In words: primary screen, population patch clamp on CHO cells stably expressing hERG.
Turning to `O=C1c2cccc(O)c2C(=O)c2c(O)cccc21`, the “hERG current change (%, negative = inhibition) at 1uM” value is listed as 3.17%.

With `COc1cc(NC(=O)c2ccco2)c(OC)cc1NC(=O)CCC(=O)Nc1cc(C)ccc1C`, the “hERG current change (%, negative = inhibition) at 1uM” value is 1.61%.

Regarding `CN(c1cccc2cccnc12)S(=O)(=O)c1ccccc1`, the “hERG current change (%, negative = inhibition) at 1uM” value was 15.2%.

`O=C(O)/C=C\C(=O)Nc1ccccc1C(=O)NC1CCCCC1`: the “hERG current change (%, negative = inhibition) at 1uM” value worked out at 16.4%.

For the compound `O=c1ccccn1Cc1c(F)cccc1Cl`, the “hERG current change (%, negative = inhibition) at 1uM” value is given as -7.73%.

Regarding `O=C(Nc1nnc(COc2ccc(F)cc2)s1)c1cccs1`, the “hERG current change (%, negative = inhibition) at 1uM” value is on record as 5.19%.

For `CC1CCCN(CC(=O)Nc2ccc(S(=O)(=O)N3CCCCCC3)cc2)C1` (stereo not drawn), the “hERG current change (%, negative = inhibition) at 1uM” value is -1.45%.

Turning to `O=C(NCc1cccc(Br)c1)c1cc(-c2ccccc2)nn1CC1CC(c2cccnc2)=NO1` (stereo not drawn), the “hERG current change (%, negative = inhibition) at 1uM” value was 1.86%.

For the compound `O=S(=O)(/N=C(/NNS(=O)(=O)c1ccccc1)c1ccccc1)c1ccccc1`, the “hERG current change (%, negative = inhibition) at 1uM” value is recorded as 4.07%.

Consider `Cc1nn(-c2ccccc2)c(C)c1NC(=O)COC(=O)c1cccc(OC(F)F)c1`, for which the “hERG current change (%, negative = inhibition) at 1uM” value worked out at 1.97%.

As to `COc1ccc(NC(=S)NNC(=O)c2ccc(S(=O)(=O)N3CCOCC3)cc2)cc1`, the “hERG current change (%, negative = inhibition) at 1uM” value was 25.4%.

For `Cc1cc2cc(CNS(=O)(=O)c3ccccc3)ccc2n1C`, the “hERG current change (%, negative = inhibition) at 1uM” value is listed as 6.19%.

As for `CCOC(=O)C(Cc1ccccc1)C(=O)NCc1ccccc1` (stereo not drawn), the “hERG current change (%, negative = inhibition) at 1uM” value worked out at 9.5%.

Take `CCOC(=O)CC(=O)Nc1ccccc1C(=O)O`: the “hERG current change (%, negative = inhibition) at 1uM” value is recorded as 2.15%.

In the case of `CC(C)Cc1c(O)nc(SCC(=O)N2CCCCCC2)[nH]c1=O`, the “hERG current change (%, negative = inhibition) at 1uM” value is reported as 10.9%.

On to `Cn1c(=NC(=O)CN2C(=O)C3CC=CCC3C2=O)sc2ccccc21` (stereo not drawn), for which the “hERG current change (%, negative = inhibition) at 1uM” value is given as 15.7%.

Take `Cc1ccc(S(=O)(=O)CCC(=O)OCC(=O)NCCc2ccccc2)cc1`: the “hERG current change (%, negative = inhibition) at 1uM” value came to 9.42%.

As to `CCOC(=O)C1CCN(C(=O)CN(c2ccc3c(c2)OCO3)S(C)(=O)=O)CC1`, the “hERG current change (%, negative = inhibition) at 1uM” value worked out at 1.2%.

For `Cn1nc(C(F)(F)F)cc1C(=O)Nc1ccc(Cl)cc1`, the “hERG current change (%, negative = inhibition) at 1uM” value worked out at 11%.

Turning to `COc1cccc(C2/C(=C(\O)c3ccc4c(c3)OCCO4)C(=O)C(=O)N2CCCN2CCOCC2)c1OC` (stereo not drawn), the “hERG current change (%, negative = inhibition) at 1uM” value turned out to be 14.2%.

With `CCOC(=O)COc1ccc2c(=O)cc(-c3ccccc3)oc2c1`, the “hERG current change (%, negative = inhibition) at 1uM” value is 9.94%.

For `FC(F)(F)c1nnc2ccc(N3CCOCC3)nn12`, the “hERG current change (%, negative = inhibition) at 1uM” value is reported as 11.9%.

As for `CN1CCN(CC(=O)Nc2ccccc2Sc2ccccc2)CC1.O=C(O)C(=O)O`, the “hERG current change (%, negative = inhibition) at 1uM” value is recorded as -26.6%.

For `COC(=O)N[C@H](c1ccccc1)[C@@]1(C)C[C@@H]1[C@@H](C)C(=O)Nc1ccc2ccccc2c1`, the “hERG current change (%, negative = inhibition) at 1uM” value is 15.5%.

`CCCCCC(O)(c1ccc(OCC)cc1)C(CN1CCOCC1)c1ccccc1.Cl` (stereo not drawn): the “hERG current change (%, negative = inhibition) at 1uM” value was 9.47%.

Turning to `COCCCn1c(SCC(=O)Nc2ccc(NC(=O)c3ccco3)c(OC)c2)nc2ccccc2c1=O`, the “hERG current change (%, negative = inhibition) at 1uM” value is given as -0.148%.

Take `CC1CC(C)CN(C2CCCCC2NS(=O)(=O)c2ccc(Cl)cc2)C1` (stereo not drawn): the “hERG current change (%, negative = inhibition) at 1uM” value was -12.7%.

As for `Cc1cccc(OCc2nnc(SCn3nnc4ccccc4c3=O)o2)c1`, the “hERG current change (%, negative = inhibition) at 1uM” value is listed as -8.41%.

Turning to `Cn1nccc1C(=O)Nn1cnnc1`, the “hERG current change (%, negative = inhibition) at 1uM” value was determined as 13.7%.

On to `Cc1cccc(N(Cc2ccccc2)C(=O)c2ccc(CS(C)(=O)=O)cc2)c1`, for which the “hERG current change (%, negative = inhibition) at 1uM” value is 8.94%.

On to `N/C(=N\N=C\c1ccc([N+](=O)[O-])cc1)c1nonc1N`, for which the “hERG current change (%, negative = inhibition) at 1uM” value was 13.3%.

In the case of `COc1cc(C(=O)Nc2cc(C(F)(F)F)ccc2Cl)cc(OC)c1OC`, the “hERG current change (%, negative = inhibition) at 1uM” value amounted to 12.2%.

Take `Cc1cccc(/C=N/NC(=O)c2ccc(NC(=O)c3ccccc3C)cc2)n1`: the “hERG current change (%, negative = inhibition) at 1uM” value is reported as 10.5%.

For `O=C(N/N=C1\CCCc2ccccc21)c1cccc(Br)c1`, the “hERG current change (%, negative = inhibition) at 1uM” value is recorded as 9.96%.

Regarding `CC(C)Cc1cc(C(=O)O)c2ccccc2n1`, the “hERG current change (%, negative = inhibition) at 1uM” value is given as -0.885%.

In the case of `O=c1[nH]cccc1-c1nc2cc(Cl)ccc2n1Cc1ccccc1`, the “hERG current change (%, negative = inhibition) at 1uM” value was 7.84%.

Consider `CC(=O)OCc1cc2cccc(C)c2[nH]c1=O`, for which the “hERG current change (%, negative = inhibition) at 1uM” value was 0.62%.

Consider `CN(CC(=O)Nc1ccc(Cl)c(C(F)(F)F)c1)C(=O)c1cccnc1Sc1ccccc1`, for which the “hERG current change (%, negative = inhibition) at 1uM” value is 8.13%.

As for `CC(C)C(NC(=O)c1ccc(C(C)(C)C)cc1)C(=O)N1CCC(C(N)=O)CC1` (stereo not drawn), the “hERG current change (%, negative = inhibition) at 1uM” value was found to be 1.28%.

Take `CN(C(=O)COC(=O)c1ccc2c(c1)OCO2)c1c(N)n(Cc2ccccc2)c(=O)[nH]c1=O`: the “hERG current change (%, negative = inhibition) at 1uM” value stood at 17.7%.

Turning to `CN1C(=O)/C(=C/c2ccc(Cl)s2)C(=O)NC1=S`, the “hERG current change (%, negative = inhibition) at 1uM” value was found to be 14.1%.

Regarding `COc1cc(C(=O)NCc2nnc(SCC(=O)N3CCOCC3)o2)cc(OC)c1OC`, the “hERG current change (%, negative = inhibition) at 1uM” value amounted to 16.7%.

For `CCOc1ccc(CCNC(=O)COC(=O)c2cccc(S(=O)(=O)N3CCCCC3)c2)cc1OCC`, the “hERG current change (%, negative = inhibition) at 1uM” value worked out at 4.91%.

Consider `CCOC(=O)C1=C(C)NC(C)=C(C(=O)OC)C1c1cccc(Cl)c1Cl` (stereo not drawn), for which the “hERG current change (%, negative = inhibition) at 1uM” value stood at 12.4%.

Consider `COC(=O)N1C(=O)[C@](c2ccsc2)(C(C)C)N1C(=O)OC`, for which the “hERG current change (%, negative = inhibition) at 1uM” value is given as 13.8%.

For the compound `O=C(N/N=C/c1ccc(C(=O)O)cc1)C(=O)N1CCCCCC1`, the “hERG current change (%, negative = inhibition) at 1uM” value is 16.4%.

For the compound `C=CCn1c(SC(C)C#N)nc2sc(CC)cc2c1=O` (stereo not drawn), the “hERG current change (%, negative = inhibition) at 1uM” value is reported as -8.92%.

On to `CCN1C(=O)CC(c2cccnc2)=Nc2ccccc21`, for which the “hERG current change (%, negative = inhibition) at 1uM” value is on record as -1.98%.

As to `COc1cccc2c1OC[C@@H](CO)[C@H]2N(C)C(=O)Nc1ccccc1`, the “hERG current change (%, negative = inhibition) at 1uM” value is given as 7.72%.

In the case of `CCOc1ccccc1N1CCN(C(=O)c2ccc3c(c2)OCO3)CC1`, the “hERG current change (%, negative = inhibition) at 1uM” value came to 5.9%.

In the case of `Cc1ccc(NC(=O)Cc2nnc(SCC(=O)Nc3ccccc3)n2C)cc1`, the “hERG current change (%, negative = inhibition) at 1uM” value came out at 0.67%.

As for `O=C(Nc1ccc(F)cc1)N1CC2CC(C1)c1cccc(=O)n1C2` (stereo not drawn), the “hERG current change (%, negative = inhibition) at 1uM” value turned out to be 18.5%.

Turning to `N#CC1c2ccccc2C=CN1C(=O)c1ccccc1` (stereo not drawn), the “hERG current change (%, negative = inhibition) at 1uM” value stood at 5.08%.

For the compound `Cc1ccc(NC(=O)CSc2nc(-c3ccco3)nc3cc(=O)[nH]n23)c(Cl)c1`, the “hERG current change (%, negative = inhibition) at 1uM” value came out at 6.45%.

For `COCCn1c(C(C)C)nc2ccccc21`, the “hERG current change (%, negative = inhibition) at 1uM” value stood at 7.6%.

For `Cc1sc2ncn3cnnc3c2c1C`, the “hERG current change (%, negative = inhibition) at 1uM” value is 5.42%.

Take `CCc1cc(=O)oc2c(C)c(OC(C)C(=O)N3CC[C@@]4(O)CCCC[C@H]4C3)ccc12` (stereo partly drawn): the “hERG current change (%, negative = inhibition) at 1uM” value came out at 6.75%.
